Holding throughout (experiment): Viability of human cancer cell lines after 72 h of drug (GDSC screen)
Compound in test [1]: COc1cc(C(=O)NC2CCN(C)CC2)ccc1Nc1ncc2c(n1)N(C1CCCC1)CCC(=O)N2C(C)C [XMD11-85h]
To be noted: top dose 10 µM; top dose inferred. The procedure:
(§1)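 Human cancer cell lines in 384-well plates, medium with 10% serum, drug for 72 h over a 256-fold dose range (nine 2-fold or five 4-fold steps up to the top dose). Adherent lines were fixed and stained with the nucleic acid dye Syto60, suspension lines read with resazurin; signal relative to control wells, capped at 0 and 100%. One two-parameter sigmoid per drug and line, fitted in a mixed model over all curves with the slope shared within a line.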

Compound in test [2]: Cn1ncnc1[C@H]1c2n[nH]c(=O)c3cc(F)cc(c23)N[C@@H]1c1ccc(F)cc1 [BMN-673]
To be noted: top dose 10 µM; top dose inferred. The procedure: as §1

Compound in test [3]: Cc1cc([C@@H](C)Nc2ccccc2C(=O)O)c2nc(N3CCOCC3)cc(=O)n2c1 [AZD6482]
The procedure: as §1

Compound in test [4]: NS(=O)(=O)OC[C@@H]1C[C@@H](n2ccc3c(N[C@H]4CCc5ccccc54)ncnc32)C[C@@H]1O [MLN4924]
To be noted: top dose 1 µM; top dose inferred. The procedure: as §1

The mark [5] stands for this setting: top dose 5 µM, screen: GDSC drug entry 1066, top dose inferred.
The mark [6] stands for this setting: top dose 5.12 µM, screen: GDSC drug entry 156.

pIC50: −log10 of the molar value. By IC50 is meant the dose at which the fit gives 50% viability; where the fit passes the top or lowest dose, that dose stands as a limit. The AUC spans the tested range (256-fold, ending at the top dose) of the same fit; values near 1 show little effect. An inferred top dose comes from the curve model; the source does not state it. For some of these results: An entry number marks a drug with two screens in the source, which often give different values.

As for TT (thyroid, adherent), the AUC in test [1] was found to be 0.98; in test [2], 0.919; in test [3] (setting [5]), 0.97; in test [3] (setting [6]), 0.974; in test [4], 0.934. Further, the pIC50 is less than 5.00 in test [1]; less than 5.00 in test [2]; less than 5.30 in test [3] (setting [5]); less than 5.29 in test [3] (setting [6]); less than 6.00 in test [4].
Consider TUR (B-cell lymphoma, suspension), for which the AUC in test [1] worked out at 0.962; in test [2], 0.842; in test [3] (setting [5]), 0.903; in test [3] (setting [6]), 0.96; in test [4] it was 0.673. In addition, the pIC50 is less than 5.00 in test [1]; 5.21 in test [2]; less than 5.30 in test [3] (setting [5]); less than 5.29 in test [3] (setting [6]); 6.74 in test [4].
Consider VA-ES-BJ (soft tissue, adherent), for which the AUC in test [1] amounted to 0.984; in test [2] it was 0.664; in test [3] (setting [5]), 0.891; in test [3] (setting [6]), 0.853; in test [4], 0.399. The negative-log IC50 (pIC50) in test [1] is less than 5.00; in test [2] it was 5.74; in test [3] (setting [5]), less than 5.30; in test [3] (setting [6]), 5.36; in test [4], 7.49.
Regarding VCaP (prostate, adherent), the AUC in test [1] stood at 0.986; in test [2], 0.91; in test [3] (setting [6]), 0.888; in test [4], 0.773. For the same cell line, the pIC50 in test [1] was less than 5.00; in test [2] it was less than 5.00; in test [3] (setting [6]) it was less than 5.29; in test [4], 6.39.
As to “VMRC-LCD (lung adenocarcinoma, adherent)”, the AUC in test [1] turned out to be 0.971; in test [2], 0.917; in test [3] (setting [5]), 0.993; in test [4] it was 0.919. The pIC50 in test [1] was less than 5.00; in test [2] it was less than 5.00; in test [3] (setting [5]) it was less than 5.30; in test [4], less than 6.00.
Take WM278 (melanoma, adherent): the AUC came out at 0.937 in test [1], 0.733 in test [2], 0.879 in test [3] (setting [5]) and 0.898 in test [4]. Moreover, the pIC50 in test [1] was less than 5.00; in test [2], 5.50; in test [3] (setting [5]), less than 5.30; in test [4] it was less than 6.00.
Consider WM-115 (melanoma, adherent), for which the AUC in test [1] was 0.97; in test [2], 0.816; in test [3] (setting [5]), 0.865; in test [3] (setting [6]), 0.874; in test [4] it was 0.886. The pIC50 in test [1] was less than 5.00; in test [2], 5.14; in test [3] (setting [5]), less than 5.30; in test [3] (setting [6]) it was less than 5.29; in test [4], less than 6.00.
Turning to WSU-DLCL2 (B-cell lymphoma, suspension), the AUC in test [1] came out at 0.987; in test [2], 0.99; in test [3] (setting [5]), 0.867; in test [3] (setting [6]) it was 0.993; in test [4], 0.965. Moreover, the pIC50 is less than 5.00 in test [1]; less than 5.00 in test [2]; 5.48 in test [3] (setting [5]); less than 5.29 in test [3] (setting [6]); less than 6.00 in test [4].
For the cell line huH-1 (liver, adherent), the AUC was 0.982 in test [1]; 0.72 in test [2]; 0.874 in test [3] (setting [5]); 0.969 in test [3] (setting [6]); 0.78 in test [4]. The pIC50 in test [1] was less than 5.00; in test [2], 5.51; in test [3] (setting [5]), less than 5.30; in test [3] (setting [6]), less than 5.29; in test [4] it was 6.29.
For no-10 (glioma, adherent), the AUC is 0.956 in test [1]; 0.849 in test [2]; 0.936 in test [3] (setting [5]); 0.9 in test [3] (setting [6]); 0.961 in test [4]. The pIC50 in test [1] was less than 5.00; in test [2], less than 5.00; in test [3] (setting [5]) it was less than 5.30; in test [3] (setting [6]), less than 5.29; in test [4] it was less than 6.00.

(Values after the supplement of paper PMC4967469.)
